Assay results from a collection of fitness landscapes (doi:10.1126/science.1257360).
This is one part of the list.

B1: PhoQ; a variant is named by its letters at X, in order, P23837 (parent)
chain: MKKLLRLFFPLSLRVRFLLATAAVVLVLSLAYGMVALIGYSVSFDKTTFRLLRGESNLFYTLAKWENNKLHVELPENIDKQSPTMTLIYDENGQLLWAQRDVPWLMKMIQPDWLKSNGFHEIEADVNDTSLLLSGDHSIQQQLQEVREDDDDAEMTHSVAVNVYPATSRMPKLTIVVVDTIPVELKSSYMVWSWFIYVLSANLLLVIPLLWVAAWWSLRPIEALAKEVRELEEHNRELLNPATTRELTSLVRNLNRLLKSERERYDKYRTTLTDLTHSLKTPLXXLQXXLRSLRSEKMSVSDAEPVMLEQISRISQQIGYYLHRASMRGGTLLSRELHPVAPLLDNLTSALNKVYQRKGVNISLDISPEISFVGEQNDFVEVMGNVLDNACKYCLEFVEISARQTDEHLYIVVEDDGPGIPLSKREVIFDRGQRVDTLRPGQGVGLAVAREITEQYEGKIVAGESMLGGARMEVIFGRQHSAPKDE

Variants of: B1
Assay: enrichment ratio after two sorts for PhoP signalling (ratio (wild type AVST 3.29)); higher = more functional
Details: with PhoP (E. coli)

Row | Variant | enrichment ratio
1 | QKYG | ≤ 0.25
2 | IAIL | ≤ 0.25
3 | SRSD | ≤ 0.25
4 | SDAT | 1.34
5 | GHKD | ≤ 0.25
6 | DYLK | ≤ 0.25
7 | GKGA | ≤ 0.25
8 | SYNH | ≤ 0.25
9 | FSLE | 8.25
10 | VTED | ≤ 0.25
11 | YILK | ≤ 0.25
12 | EGET | ≤ 0.25
13 | SHTV | 0.811
14 | SLIN | ≤ 0.25
15 | RAQD | ≤ 0.25
16 | KCFK | ≤ 0.25
17 | VDLA | ≤ 0.25
18 | NSTL | ≤ 0.25
19 | NGQQ | ≤ 0.25
20 | HNKQ | ≤ 0.25
21 | KMYH | ≤ 0.25
22 | AIWT | ≤ 0.25
23 | MILF | 2.03
24 | GKIY | ≤ 0.25
25 | MPSP | ≤ 0.25
26 | AWGP | ≤ 0.25

Row | Variant | enrichment ratio
27 | NRLP | ≤ 0.25
28 | VGNY | ≤ 0.25
29 | YEHD | ≤ 0.25
30 | KWLI | ≤ 0.25
31 | KKIM | ≤ 0.25
32 | FQKG | ≤ 0.25
33 | IGMM | 18.5
34 | SMYK | ≤ 0.25
35 | FVFR | ≤ 0.25
36 | LTMA | ≤ 0.25
37 | TSGE | ≤ 0.25
38 | AWND | ≤ 0.25
39 | KEFW | ≤ 0.25
40 | IWHN | ≤ 0.25
41 | PCRD | ≤ 0.25
42 | AHAP | ≤ 0.25
43 | QASP | ≤ 0.25
44 | MWHV | ≤ 0.25
45 | RPFL | ≤ 0.25
46 | FCMC | ≤ 0.25
47 | ACGC | 2.62
48 | LNRI | ≤ 0.25
49 | RDWF | ≤ 0.25
50 | EEMC | ≤ 0.25
51 | MSNP | ≤ 0.25
52 | WYWV | ≤ 0.25

Row | Variant | enrichment ratio
53 | EYPP | ≤ 0.25
54 | YIAG | 0.441
55 | MIRT | ≤ 0.25
56 | ICKD | ≤ 0.25
57 | QQKI | ≤ 0.25
58 | QWVF | ≤ 0.25
59 | PCIS | ≤ 0.25
60 | VRQT | ≤ 0.25
61 | NRHI | ≤ 0.25
62 | VGYI | ≤ 0.25
63 | TNTS | 13.4
64 | SATW | ≤ 0.25
65 | GMGY | ≤ 0.25
66 | LPTQ | ≤ 0.25
67 | NPWK | ≤ 0.25
68 | VKYI | ≤ 0.25
69 | HSRP | ≤ 0.25
70 | NICD | ≤ 0.25
71 | PCMH | ≤ 0.25
72 | SICA | 8.12
73 | VPRM | ≤ 0.25
74 | MHCW | ≤ 0.25
75 | FCWT | ≤ 0.25
76 | PPEN | ≤ 0.25
77 | MTFP | ≤ 0.25
78 | MNTY | ≤ 0.25

Row | Variant | enrichment ratio
79 | AHNY | ≤ 0.25
80 | LPHH | ≤ 0.25
81 | TWPH | ≤ 0.25
82 | PTDS | ≤ 0.25
83 | TKDD | ≤ 0.25
84 | CLRY | ≤ 0.25
85 | GKSD | ≤ 0.25
86 | NRCG | ≤ 0.25
87 | VAWH | ≤ 0.25
88 | GYNK | ≤ 0.25
89 | RHSH | ≤ 0.25
90 | MSSN | ≤ 0.25
91 | MPGC | ≤ 0.25
92 | AGNK | ≤ 0.25
93 | LSIQ | ≤ 0.25
94 | HLHR | ≤ 0.25
95 | FWKS | ≤ 0.25
96 | MSTC | 1.5
97 | SSLQ | 14.5
98 | NMRT | ≤ 0.25
99 | HKGE | ≤ 0.25
100 | TTRP | ≤ 0.25
101 | KVRG | ≤ 0.25
102 | PPND | ≤ 0.25
103 | FSTY | ≤ 0.25
104 | QIVM | ≤ 0.25

Row | Variant | enrichment ratio
105 | MFAS | ≤ 0.25
106 | WKPQ | ≤ 0.25
107 | TDDM | ≤ 0.25
108 | NFKC | ≤ 0.25
109 | SLPA | ≤ 0.25
110 | FKDW | ≤ 0.25
111 | DKCY | ≤ 0.25
112 | QSTE | ≤ 0.25
113 | RAVI | ≤ 0.25
114 | GFDW | ≤ 0.25
115 | MYLE | ≤ 0.25
116 | VLKY | ≤ 0.25
117 | VDFT | ≤ 0.25
118 | QPCV | ≤ 0.25
119 | NERQ | ≤ 0.25
120 | ISRK | ≤ 0.25
121 | TNVT | ≤ 0.25
122 | QCSG | 32
123 | HIPF | ≤ 0.25
124 | DMHI | ≤ 0.25
125 | HIRV | ≤ 0.25
126 | VHWL | ≤ 0.25
127 | TCRK | ≤ 0.25
128 | DDQG | ≤ 0.25
129 | FFLP | ≤ 0.25
130 | HASM | 1.23

Row | Variant | enrichment ratio
131 | KFTD | ≤ 0.25
132 | MSDD | ≤ 0.25
133 | TCPM | ≤ 0.25
134 | EIAK | ≤ 0.25
135 | MKTK | ≤ 0.25
136 | DSCG | ≤ 0.25
137 | VRMW | ≤ 0.25
138 | TCEV | 2.64
139 | TPHD | ≤ 0.25
140 | MRSS | ≤ 0.25
141 | YCSV | 1.26
142 | PKGF | ≤ 0.25
143 | WRCG | ≤ 0.25
144 | DGCW | ≤ 0.25
145 | HNSP | ≤ 0.25
146 | YSHA | ≤ 0.25
147 | MDML | ≤ 0.25
148 | HKKN | ≤ 0.25
149 | VHHR | ≤ 0.25
150 | NIDW | ≤ 0.25
151 | HMVE | ≤ 0.25
152 | ESHT | ≤ 0.25
153 | SQYV | ≤ 0.25
